The least precise scores are not listed. Two further conditions of the source, in which the scores hardly spread, are not listed. Names with del lack the residues named; names with ins carry added residues between the positions named. For part of these data: The data file names ogerin without a concentration.
B1: GPR68, Q15743 (parent)
chain: MGNITADNSSMSCTIDHTIHQTLAPVVYVTVLVVGFPANCLSLYFGYLQIKARNELGVYLCNLTVADLFYICSLPFWLQYVLQHDNWSHGDLSCQVCGILLYENIYISVGFLCCISVDRYLAVAHPFRFHQFRTLKAAVGVSVVIWAKELLTSIYFLMHEEVIEDENQHRVCFEHYPIQAWQRAINYYRFLVGFLFPICLLLASYQGILRAVRRSHGTQKSRKDQIQRLVLSTVVIFLACFLPYHVLLLVRSVWEASCDFAKGVFNAYHFSLLLTSFNCVADPVLYCFVSETTHRDLARLRGACLAFLTCSRTGRAREAYPLGAPEASGKSGAQGEEPELLTKLHPAFQTPNSPGSGGFPTGRLA

Assays:
[1] = variants of: B1; assay: cAMP reporter score (Enrich2 score, wild type = 0); higher = more signal; HEK293T, FACS bins
[2] = variants of: B1; assay: surface expression score (Enrich2 score, wild type = 0); higher = more signal; HEK293T, FACS bins

MGNITADNSSMSCTIDHTIHQTLAPVVYVTVLVVGFPANCLSIYFGYLQIKARNELGVYLCNLTVADLFYICSLPFWLQYVLQHDNWSHGDLSCQVCGILLYENIYISVGFLCCISVDRYLAVAHPFRFHQFRTLKAAVGVSVVIWAKELLTSIYFLMHEEVIEDENQHRVCFEHYPIQAWQRAINYYRFLVGFLFPICLLLASYQGILRAVRRSHGTQKSRKDQIQRLVLSTVVIFLACFLPYHVLLLVRSVWEASCDFAKGVFNAYHFSLLLTSFNCVADPVLYCFVSETTHRDLARLRGACLAFLTCSRTGRAREAYPLGAPEASGKSGAQGEEPELLTKLHPAFQTPNSPGSGGFPTGRLA [L43I]
cAMP reporter score ([1]; pH 5.5): 0.667
cAMP reporter score ([1]; pH 6): -0.848
cAMP reporter score ([1]; pH 6, modulator: ogerin): 0.67
cAMP reporter score ([1]; pH 6.5, modulator: ogerin): 0.32

MGNITADNSSMSCTIDHTIHQTLAPVVYVTVLVVGFPANCLSKYFGYLQIKARNELGVYLCNLTVADLFYICSLPFWLQYVLQHDNWSHGDLSCQVCGILLYENIYISVGFLCCISVDRYLAVAHPFRFHQFRTLKAAVGVSVVIWAKELLTSIYFLMHEEVIEDENQHRVCFEHYPIQAWQRAINYYRFLVGFLFPICLLLASYQGILRAVRRSHGTQKSRKDQIQRLVLSTVVIFLACFLPYHVLLLVRSVWEASCDFAKGVFNAYHFSLLLTSFNCVADPVLYCFVSETTHRDLARLRGACLAFLTCSRTGRAREAYPLGAPEASGKSGAQGEEPELLTKLHPAFQTPNSPGSGGFPTGRLA [L43K]
cAMP reporter score ([1]; pH 5.5): -0.388
cAMP reporter score ([1]; pH 6): -0.235
cAMP reporter score ([1]; pH 6, modulator: ogerin): -1.39
cAMP reporter score ([1]; pH 6.5, modulator: ogerin): -1.07
surface expression score [2]: -2.49

MGNITADNSSMSCTIDHTIHQTLAPVVYVTVLVVGFPANCLSMYFGYLQIKARNELGVYLCNLTVADLFYICSLPFWLQYVLQHDNWSHGDLSCQVCGILLYENIYISVGFLCCISVDRYLAVAHPFRFHQFRTLKAAVGVSVVIWAKELLTSIYFLMHEEVIEDENQHRVCFEHYPIQAWQRAINYYRFLVGFLFPICLLLASYQGILRAVRRSHGTQKSRKDQIQRLVLSTVVIFLACFLPYHVLLLVRSVWEASCDFAKGVFNAYHFSLLLTSFNCVADPVLYCFVSETTHRDLARLRGACLAFLTCSRTGRAREAYPLGAPEASGKSGAQGEEPELLTKLHPAFQTPNSPGSGGFPTGRLA [L43M]
cAMP reporter score ([1]; pH 5.5): 1.35
cAMP reporter score ([1]; pH 6): 0.038
cAMP reporter score ([1]; pH 6, modulator: ogerin): 1.66
cAMP reporter score ([1]; pH 6.5, modulator: ogerin): 0.929
surface expression score [2]: -1.38

MGNITADNSSMSCTIDHTIHQTLAPVVYVTVLVVGFPANCLSNYFGYLQIKARNELGVYLCNLTVADLFYICSLPFWLQYVLQHDNWSHGDLSCQVCGILLYENIYISVGFLCCISVDRYLAVAHPFRFHQFRTLKAAVGVSVVIWAKELLTSIYFLMHEEVIEDENQHRVCFEHYPIQAWQRAINYYRFLVGFLFPICLLLASYQGILRAVRRSHGTQKSRKDQIQRLVLSTVVIFLACFLPYHVLLLVRSVWEASCDFAKGVFNAYHFSLLLTSFNCVADPVLYCFVSETTHRDLARLRGACLAFLTCSRTGRAREAYPLGAPEASGKSGAQGEEPELLTKLHPAFQTPNSPGSGGFPTGRLA [L43N]
cAMP reporter score ([1]; pH 5.5): -1.53
cAMP reporter score ([1]; pH 6, modulator: ogerin): -1.64
cAMP reporter score ([1]; pH 6.5, modulator: ogerin): -1.33
surface expression score [2]: -3.55
